Drawing on paper PMC12136788, this text covers binding signal for 22 molecules.

Some of the results follow.

Sequences and labels used below:
T1: UNK ZnF1-3 (human, UniProt Q9C0B0 31-174)
T1 sequence: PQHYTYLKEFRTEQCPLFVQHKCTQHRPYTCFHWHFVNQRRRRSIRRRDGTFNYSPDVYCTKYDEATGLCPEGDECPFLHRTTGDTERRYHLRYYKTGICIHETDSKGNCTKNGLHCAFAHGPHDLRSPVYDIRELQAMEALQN

B1: 125006391_125006773_7440_CDS_ENSMUSG00000014444_ENSMUST00000067252|mouse|control|control (ssRNA)
RNA: GGGAGUUCUACAGUCCGACGAUCCUGGAUGCGCACACCAAGGUAGUCCUCUUCCUCAUCUGGCUGCAGCUGCUUCACAGGGUUGGCUUCAGGCCCAUUGGGAGCACGAAUGUACUUGGGGAAGAGAUGGGGAAUGACCACUGACAACAGAGGAUUGAGCAUCA
B2: chr10:7364202:7364203:-_ENSMUSG00000019795_ENSMUST00000163085|mus_hu|motif|central (ssRNA)
RNA: GGGAGUUCUACAGUCCGACGAUCUCCAGAUCCUACAUCAAGAGCUUUAGCUCCUUCAUGCAACUGAUCAAAUAGAAGUUCGGGCGCAUAUGCAUGCAUGUGUGGAGCACUGAUUGUUGCUUGGAAACCUAUUGAUUGUGGAGACAACAGAGGAUUGAGCAUCA
B3: 2405982_2406178_1304_CDS_ENSG00000106263_ENST00000360876|human|control|control (ssRNA)
RNA: GGGAGUUCUACAGUCCGACGAUCUUUGCCAUCAUGGCUCCACUUAAAAAUAGGCCAAUGGGCUGAGCUCUCACAGUGAAAACCCCUCUUCUUGUGCCCCGUAAGGAUGUCCCAGAUGAUUAUGGCCUGAGGGUCAUCCUGCGUCAACAGAGGAUUGAGCAUCA
B4: chr18:77696836:77696837:-_ENSMUSG00000025427_ENSMUST00000026494|mus_hu|FALSE|FALSE (ssRNA)
RNA: GGGAGUUCUACAGUCCGACGAUCCCUCAGAGGAUACCGGCUGGGUGGGCUGAGGUUGUGGGAGGAGCGAGGGAGGAGGAAAGGCAGGUUCAUGAUGGAGAGGCAGGGUUGUGGUGGGGGCGGGGGGGUGCCAAGUGUAGCAAGCAACAGAGGAUUGAGCAUCA
B5: chr6:133136146:133136147:+_ENSG00000112306_ENST00000230050|hu_hu|motif|central (ssRNA)
RNA: GGGAGUUCUACAGUCCGACGAUCACAAAGAUGGGCUUGGCGCUUGUCUAAGGCUUUGGCAGCUUCGCGAAUUCCACGUGCGGGGCCAUCGUGGAUGAGGGCAGUCUUCAGAACCUCUUGUAAAGCAGUAUUAACGUCCAUUACCAACAGAGGAUUGAGCAUCA
B6: chr17:65740002:65740003:+_ENSG00000130935_ENST00000581375|hu_hu|hu_hu_hu_mus_False|58_58 (ssRNA)
RNA: GGGAGUUCUACAGUCCGACGAUCAACAAAUCUUUCUUCCCUGGACGAACAGGAAGAUUCAUAUUAAAAAAAAUAUAUGUCUAUGAAGUUAGGUGUGGUGGCCACACCUUUACUCCCAGCACUUUGGGAGGUGGAUCUCUGAGUCAACAGAGGAUUGAGCAUCA
B7: chr14:57521792:57521793:+_ENSMUSG00000021945_ENSMUST00000022511|mus_mus|FALSE|FALSE (ssRNA)
RNA: GGGAGUUCUACAGUCCGACGAUCUGAAGGAAGAAUUUUGGGAUCGUUUCCUUGUAGUUCUUCAUUUUUUGAAGAUGUAAAUGUUAUGGGUCUUUGAUCAGCAACCAAAGGUGCAGAAGAUGGAGGAGGUUGUACAGGUUCAAUCAACAGAGGAUUGAGCAUCA
B8: chr12:112466857:112466858:-_ENSG00000111300_ENST00000261745|hu_hu|FALSE|FALSE (ssRNA)
RNA: GGGAGUUCUACAGUCCGACGAUCGUGUACCUGCCUUGGGUUCUGUGGGAGCCAAGUAGCUGAGAAAGCCUCAAAACAAACUUACUGCUGUGAAAAGGGGGUCUGUUCCCAGGCAUGGUCUCCCCUCCACUUCUUGUGGCUCAACAACAGAGGAUUGAGCAUCA
B9: chr4:25749455:25749456:-_ENSG00000091490_ENST00000264868|hu_hu|hu_hu_hu_mus_False|28_88 (ssRNA)
RNA: GGGAGUUCUACAGUCCGACGAUCGCACUAUGACCUCUAGAAAAAUCAUUCAAGGAGAAAAAUGUAAACCAAUGUACAAUGUUAUCGCCUUCCCUGUGUGUGGAGUGACAAACAAUUGGCUCCUUCUAGCUGCUGGAUUUGGGACAACAGAGGAUUGAGCAUCA
B10: chr19:15981513:15981514:-_ENSMUSG00000024640_ENSMUST00000025542|mus_mus|FALSE|FALSE (ssRNA)
RNA: GGGAGUUCUACAGUCCGACGAUCCAAAGCUUCGUCUCCUUUGGCGUUGCCAAUGCGAAAUGGGAUGUUCAUCCUGCUUCUAUUCUGGCGCUCCACUGGGCAUACAUAAAAUCCUUGAGAAUUAUCAAUGAUCUCAUAAAUCAUCAACAGAGGAUUGAGCAUCA
B11: 35834523_35834643_1342_3pUTR_ENSMUSG00000024350_ENSMUST00000025208|mouse|control|control (ssRNA)
RNA: GGGAGUUCUACAGUCCGACGAUCCCCUGACCUACUUCACAGAGGAGUUGGGUCCAAACUUUACCAUGCCUGUGACUAAGACCAACUGUUCUGCCCUGGGAGCCAGGCCUGGGGAAGGACUGGAGGGGACAAGUCUCCAAUCACCAACAGAGGAUUGAGCAUCA
B12: chr12:42180722:42180723:-_ENSMUSG00000036295_ENSMUST00000043884|mus_hu|mus_mus_mus_hu_True|88_108 (ssRNA)
RNA: GGGAGUUCUACAGUCCGACGAUCCUGUAGGAGCAGAAUCUGUGUGUCGGCAGGCAAUCUGGCUGGGAAAGUUAAAAGACCUAAAUCAUUACAAUCCACUGUAGAUGCUUCCAUAUAAAUGGAUCUGGGUGUAAACCAAGGCCUCAACAGAGGAUUGAGCAUCA
B13: chr3:133126781:133126782:-_ENSMUSG00000040943_ENSMUST00000098603|mus_hu|motif|central (ssRNA)
RNA: GGGAGUUCUACAGUCCGACGAUCUAUUUAUAACCAUCCUCAGAUCUUAUAAACCAAACAUCUCAUGAAAAUGAAAUGAAACGGGUUUUUAAAAAAGCAUAGAAAAAUGCACACAGAAGUUAUCUUAGUGUCAAACUGCAAAAGCAACAGAGGAUUGAGCAUCA
B14: chr11:50626376:50626377:-_ENSMUSG00000044807_ENSMUST00000109135|mus_mus|FALSE|FALSE (ssRNA)
RNA: GGGAGUUCUACAGUCCGACGAUCUCAGAGCUGAAGACCUCGAUUCUUAAAAGGUUAUAAAUUAAAAGUUUCUCUGAUUCUAAAAUGCAAACAGGUUCAUAGCAGGAGACUCUUGUUAACAAUGGCCUUCUACAAUACGUAAUACAACAGAGGAUUGAGCAUCA
B15: chr3:105756983:105756984:-_ENSMUSG00000000563_ENSMUST00000118209|mus_mus|motif|central (ssRNA)
RNA: GGGAGUUCUACAGUCCGACGAUCAAUAAAUUCUCCAAAAGAGGCGCCAUAUUUCUUAAUCACAUAGACUAUCAACCCGGCGGCUGAUAUGGUAGAGAAGGUCUCUGGGGUAAUCACAUAUAUUUCUUUGGAUAGAAAAUACAACAACAGAGGAUUGAGCAUCA
B16: 31371766_31374660_2016_CDS_ENSG00000196792_ENST00000355683|human|control|control (ssRNA)
RNA: GGGAGUUCUACAGUCCGACGAUCGUGUCUAUCUUCAUGAGCAGUUAUUGUAACAGGAAGUGUGGGAUGACUUACUACUCUGUUGAUAUGAUUAUUAGAUUGUAAACCAGAAUCUACCUGUGAUGAAAGUAUCACCAAUGACUGCAACAGAGGAUUGAGCAUCA
B17: chr14:15598107:15598108:+_ENSMUSG00000021733_ENSMUST00000057015|perfect_dup|motif|central (ssRNA)
RNA: GGGAGUUCUACAGUCCGACGAUCUUGCCCAGCAAACAAUGAAUAGGCAAUCCCAGUUAAUGACGCUCCAAAAAGAGACUCGGUUGCACUUAUUCUGCCUUCUGUAGCUUCUCCAAGCAGCCCUCCAAAAGUGAUUACAGGAGACAACAGAGGAUUGAGCAUCA
B18: chr21:34924512:34924513:+_ENSG00000159140_ENST00000381679|hu_hu|motif|central (ssRNA)
RNA: GGGAGUUCUACAGUCCGACGAUCAGAUGACAUCAUGGAACGUUCUGCAGCAUAGGACAUCAUCAUAGAACGUCUAGAUGCGGACAUCAGGGGUCUAGGUGCUAACCUAUAUGGCCUGGGUGCUAUUCUAUAGGACCUGGGUGCCAACAGAGGAUUGAGCAUCA
B19: chr10:12291664:12291665:+_ENSG00000151465_ENST00000378900|hu_hu|FALSE|FALSE (ssRNA)
RNA: GGGAGUUCUACAGUCCGACGAUCGUUCCAGUACGCUCAUCAGUCGUCCUCCUGCUGAUUUCUCUUCAGCUUAAGGAAGUCUAUUAGCUUGUGAGCGUCCUCCCCAGUAGAGAGGUCUACAAAGUCCUUGGGUAGCCGGUAACUCAACAGAGGAUUGAGCAUCA
B20: chr10:121586544:121586545:+_ENSG00000198825_ENST00000369080|hu_hu|motif|central (ssRNA)
RNA: GGGAGUUCUACAGUCCGACGAUCCCGACUGCCCAAUCGAGGCGCUGAGGCAAUAAUACCACAACUAGGAAGAACGUAAUCGGUUGGCCCUACACUCUCUAAUGAGUUAGCUAGCUGCCUGUCUUCAUCAGACUUAGAAUUUGUCAACAGAGGAUUGAGCAUCA
B21: chr1:168165803:168165804:+_ENSG00000143155_ENST00000367833|hu_hu|motif|central (ssRNA)
RNA: GGGAGUUCUACAGUCCGACGAUCAUUCAUUCUGAUAAGCACCCCAUCAAUUCUCAAGAAAAACCGCAACAGCAGGAAAAAGCGGGAAGGCAUUACUCUAAUCUUCACACUCAGGCUUGAAACUCCAUGAUCAUGAAGUUCAUCCAACAGAGGAUUGAGCAUCA
B22: chr7:141438946:141438947:+_ENSG00000106028_ENST00000265304|hu_mus|hu_hu_hu_mus_True|78_88 (ssRNA)
RNA: GGGAGUUCUACAGUCCGACGAUCGACGAAAUACCUGUAACACAGGUGAAACAUGGCUUCUAUUUUCUUUUCUUACAACCUAAUCUUUAGGCUUUUCCUAAAGGAAAGAAAGAAAAGAGAAAAAUGAUAAAUCAAGAAACUACACAACAGAGGAUUGAGCAUCA

The assay addresses T1, UNK ZnF1-3. Kind of assay: nsRBNS (natural sequence RNA bind-n-seq); RBNS binding buffer (assumed for nsRBNS): 25 mM Tris pH 7.5, 150 mM KCl, 3 mM MgCl2, 0.01% Triton X-100, 500 ug/ml BSA, 20 U/ml SUPERase-In, 4 C; UNK is unkempt and MSI1 is Musashi-1; names of the RNAs are library labels; protein concentration not given here; high values mean tight binding.
Turning to B1, the binding signal came out at 1 enrichment R.
Regarding B2, the binding signal stood at 1.24 enrichment R.
For the molecule B3, the binding signal amounted to 0.839 enrichment R.
Consider B4, for which the binding signal stood at 3.07 enrichment R.
B5: the binding signal turned out to be 1.35 enrichment R.
B6 yielded a binding signal of 1.19 enrichment R.
Molecule B7 came in with a binding signal of 1.19 enrichment R.
Consider B8, for which the binding signal was 1.17 enrichment R.
In turn, B9 showed a binding signal of 1.19 enrichment R.
Take B10: the binding signal was 0.557 enrichment R.
The same measure for B11: 2.03 enrichment R; for B12: 1.08 enrichment R; for B13: 0.873 enrichment R.
Consider B14, for which the binding signal is 1.71 enrichment R.
Turning to B15, the binding signal came to 1.38 enrichment R.
B16: the binding signal turned out to be 1.33 enrichment R.
Molecule B17 returned a binding signal of 1.31 enrichment R.
The molecule B18 registered a binding signal of 0.936 enrichment R.
In turn, B19 returned a binding signal of 0.299 enrichment R.
B20: the binding signal stood at 0.982 enrichment R.
Consider B21, for which the binding signal is 1.84 enrichment R.
B22 gave a binding signal of 0.333 enrichment R.
